B1: TEV protease; numbered along this chain (parent)
chain: MGESLFKGPRDYNPISSSICHLTNESDGHTTSLYGIGFGPFIITNKHLFRRNNGTLVVQSLHGVFKVKDTTTLQQHLVDGRDMIIIRMPKDFPPFPQKLKFREPQREERICLVTTNFQTKSMSSMVSDTSCTFPSGDGIFWKHWIQTKDGQCGSPLVSTRDGFIVGIHSASNFTNTNNYFTSVPKNFMELLTNQEAQQWVSGWRLNADSVLWGGHKVFMVKPEEPFQPVKEATQL

This assay covers variants of B1. Kind of assay: raw area under fraction-flipped curve 0-4 h after induction (AUC4h, not background-subtracted), DNA-recorder readout of cleavage of the substrate (dimensionless); higher = more cleavage of the substrate by the protease variant. The conditions noted are these: temperature: 34 °C; time window: 0-4 h after rhamnose induction. As to the method: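 In vivo DNA recorder in E. coli TOP10(DE3) ΔrhaA at 34 °C. Each TEVp single-site mutant (parent TEVp 0) is paired with a single-site variant of the 7-mer TEVs (canonical ENLYFQ|S). The substrate sits between flexible linkers in a Bxb1-sfGFP-TEVs-SsrA fusion, so cleavage stabilises Bxb1 and speeds flipping of a recombination array, read by NGS. The value is the raw area under the fraction-flipped curve over 0-4 h after rhamnose induction (AUC4h), with ≥20 reads per time point. It is not background-subtracted; inactive controls average about 0.047.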

The other results are listed elsewhere or left out. Sequences were assembled here from the parent chain. Inactive controls read about 0.05.
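Also: Bxb1 expression induced with 0.2% (w/v) L-rhamnose at OD600 near 0.5, cultures sampled hourly, flipped fraction per protease–substrate barcode pair counted by paired-end Illumina sequencing.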

Take MGESLFKGPRDYNPISSSICHLTNESDGHTTSLYGIGFGPFIITNKHLFRRNNGTLVVQSLHGVFKVKDTTTLQQHLVDGRDMIIIRMPKDFPPFPQKLKFREPQREERICLVTTNFQTKSMSSMVSDTSCTFPSGDGIFWKAWIQTKDGQCGSPLVSTRDGFIVGIHSASNFTNTNNYFTSVPKNFMELLTNQEAQQWVSGWRLNADSVLWGGHKVFMVKPEEPFQPVKEATQL [H143A]: the “area with substrate ECLYFQS” value is 0.0919, the “area with substrate EDLYFQS” value came out at 0.142, the “area with substrate EELYFQS” value stood at 0.119 and the “area with substrate EFLYFQS” value turned out to be 0.0836. The “area with substrate EGLYFQS” value came out at 0.0807, the “area with substrate EHLYFQS” value amounted to 0.125, the “area with substrate EILYFQS” value was 0.0895 and the “area with substrate EKLYFQS” value was determined as 0.105. Moreover, the “area with substrate EMLYFQS” value turned out to be 0.093, the “area with substrate EPLYFQS” value was found to be 0.11, the “area with substrate EQLYFQS” value was found to be 0.11 and the “area with substrate ERLYFQS” value turned out to be 0.0707. Further, the “area with substrate ESLYFQS” value came out at 0.0823, the “area with substrate EVLYFQS” value is 0.083, the “area with substrate EWLYFQS” value amounted to 0.0732 and the “area with substrate EYLYFQS” value was determined as 0.103.

Turning to MGESLFKGPRDYNPISSSICHLTNESDGHTTSLYGIGFGPFIITNKHLFRRNNGTLVVQSLHGVFKVKDTTTLQQHLVDGRDMIIIRMPKDFPPFPQKLKFREPQREERICLVTTNFQTKSMSSMVSDTSCTFPSGDGIFWKHWIQTKDGQCGSPLVSTRDGRIVGIHSASNFTNTNNYFTSVPKNFMELLTNQEAQQWVSGWRLNADSVLWGGHKVFMVKPEEPFQPVKEATQL [F163R], the “area with substrate ECLYFQS” value was 0.107, the “area with substrate EELYFQS” value amounted to 0.105, the “area with substrate EGLYFQS” value came to 0.106 and the “area with substrate EHLYFQS” value amounted to 0.116. Moreover, the “area with substrate EKLYFQS” value was determined as 0.0898, the “area with substrate EMLYFQS” value came to 0.129, the “area with substrate ERLYFQS” value worked out at 0.124 and the “area with substrate ESLYFQS” value came out at 0.134. Besides, the “area with substrate EVLYFQS” value turned out to be 0.0986, the “area with substrate EWLYFQS” value is 0.0862 and the “area with substrate EYLYFQS” value worked out at 0.12.

Consider MGESLFKGPRDYNPISSSICHLTNESDGHTTSLYGIGFGPFIITNKHLFRRNNGTLVVQSLHGVFKVKDTTTLQQHLVDGRDMIIIRMPKDFPPFPQKLKFREPQREERICLVTTNFQTKSMSSMVSDTSCTFPSGDGIFWKHWIRTKDGQCGSPLVSTRDGFIVGIHSASNFTNTNNYFTSVPKNFMELLTNQEAQQWVSGWRLNADSVLWGGHKVFMVKPEEPFQPVKEATQL [Q146R], for which the “area with substrate ECLYFQS” value turned out to be 0.115, the “area with substrate EELYFQS” value worked out at 0.151, the “area with substrate EGLYFQS” value was found to be 0.0944 and the “area with substrate EILYFQS” value was 0.0963. In addition, the “area with substrate ELLYFQS” value amounted to 0.0869, the “area with substrate EMLYFQS” value was determined as 0.119, the “area with substrate EPLYFQS” value came to 0.125 and the “area with substrate EQLYFQS” value turned out to be 0.123. Also, the “area with substrate ESLYFQS” value is 0.0154, the “area with substrate ETLYFQS” value turned out to be 0.0951, the “area with substrate EVLYFQS” value worked out at 0.117 and the “area with substrate EYLYFQS” value was 0.13.

In the case of MGESLFKGPRDYNPISSSICHLTNESDGHTTSLYGIGFGPFIITNKHLFRRNNGTLVVQSLHGVFKVKDTTTLQQHLVDGRDMIIIRMPKDFPPFPQKLKFREPQREERICLVTTNFQTKSMSSMVSDTSCTFPSGDGIFWKHWIQTKDGQCGSPLVSTRDGFIVGTHSASNFTNTNNYFTSVPKNFMELLTNQEAQQWVSGWRLNADSVLWGGHKVFMVKPEEPFQPVKEATQL [I167T], the “area with substrate ECLYFQS” value was 0.0781, the “area with substrate EDLYFQS” value was found to be 0.0828, the “area with substrate EELYFQS” value came to 0.105 and the “area with substrate EFLYFQS” value worked out at 0.0494. Also, the “area with substrate EGLYFQS” value worked out at 0.0545, the “area with substrate EHLYFQS” value turned out to be 0.0811, the “area with substrate EILYFQS” value came out at 0.0627 and the “area with substrate EKLYFQS” value is 0.0577. In addition, the “area with substrate ELLYFQS” value stood at 0.0528, the “area with substrate EMLYFQS” value came to 0.0786, the “area with substrate EPLYFQS” value worked out at 0.0715 and the “area with substrate EQLYFQS” value stood at 0.0676. Also, the “area with substrate ERLYFQS” value is 0.0643, the “area with substrate ESLYFQS” value was found to be 0.0724, the “area with substrate EVLYFQS” value came out at 0.0603 and the “area with substrate EWLYFQS” value is 0.0658. Further, the “area with substrate EYLYFQS” value is 0.0645.

For the variant MGESLFKGPRDYNPISSSICHLTNESDGHTTSLYGIGFGPFIITNKHLFRRNNGTLVVQSLHGVFKVKDTTTLQQHLVDGRDMIIIRMPKDFPPFPQKLKFREPQREERICLVTTNFQTKSMSSMVSDTSCTFPSGDGIFWKHWIQTKDGQCGSPLVSTRDGFIVGWHSASNFTNTNNYFTSVPKNFMELLTNQEAQQWVSGWRLNADSVLWGGHKVFMVKPEEPFQPVKEATQL [I167W], the “area with substrate ECLYFQS” value was 0.0542, the “area with substrate EDLYFQS” value stood at 0.0632, the “area with substrate EELYFQS” value was 0.049 and the “area with substrate EGLYFQS” value was 0.0531. The “area with substrate EHLYFQS” value amounted to 0.0583, the “area with substrate EILYFQS” value came to 0.051, the “area with substrate EKLYFQS” value came to 0.0076 and the “area with substrate ELLYFQS” value amounted to 0.0546. For the same variant, the “area with substrate EMLYFQS” value was determined as 0.0603, the “area with substrate EPLYFQS” value was 0.0536, the “area with substrate EQLYFQS” value was 0.049 and the “area with substrate ERLYFQS” value was determined as 0.0457. The “area with substrate ESLYFQS” value worked out at 0.0535, the “area with substrate EVLYFQS” value is 0.0588, the “area with substrate EWLYFQS” value is 0.126 and the “area with substrate EYLYFQS” value was 0.0515.

Regarding MGESLFKGPRDYNPISSSICHLTNESDGHTTSLYGIGFGPFIITNKHLFRRNNGTLVVQSLHGVFKVKDTTTLQQHLVDGRDMIIIRMPKDFPPFPQKLKFREPQREERICLVTTNFQTKSMSSMVSDTSCTFPSGDGIFWKHWDQTKDGQCGSPLVSTRDGFIVGIHSASNFTNTNNYFTSVPKNFMELLTNQEAQQWVSGWRLNADSVLWGGHKVFMVKPEEPFQPVKEATQL [I145D], the “area with substrate ECLYFQS” value was 0.0514, the “area with substrate EDLYFQS” value stood at 0.0434, the “area with substrate EELYFQS” value is 0.126 and the “area with substrate EGLYFQS” value is 0.0641. The “area with substrate EHLYFQS” value is 0.0574, the “area with substrate EILYFQS” value turned out to be 0.0572, the “area with substrate EKLYFQS” value turned out to be 0.0523 and the “area with substrate ELLYFQS” value stood at 0.049. The “area with substrate EMLYFQS” value is 0.0557, the “area with substrate EQLYFQS” value was found to be 0.0581, the “area with substrate ERLYFQS” value is 0.0738 and the “area with substrate ESLYFQS” value is 0.0652. Besides, the “area with substrate ETLYFQS” value is 0.0648, the “area with substrate EVLYFQS” value was 0.0692, the “area with substrate EWLYFQS” value worked out at 0.0499 and the “area with substrate EYLYFQS” value came out at 0.0632.

With MGESLFKGPRDYNPISSSICHLTNESDGHTTSLYGIGFGPFIITNKHLFRRNNGTLVVQSLHGVFKVKDTTTLQQHLVDGRDMIIIRMPKDFPPFPQKLKFREPQREERICLVTTNFQTKSMSSMVSDTSCTFPSGDGIFWKHWIQNKDGQCGSPLVSTRDGFIVGIHSASNFTNTNNYFTSVPKNFMELLTNQEAQQWVSGWRLNADSVLWGGHKVFMVKPEEPFQPVKEATQL [T147N], the “area with substrate ECLYFQS” value was determined as 0.0651, the “area with substrate EELYFQS” value was determined as 0.0686, the “area with substrate EGLYFQS” value worked out at 0.0677 and the “area with substrate EHLYFQS” value came to 0.062. Further, the “area with substrate EILYFQS” value turned out to be 0.0719, the “area with substrate EKLYFQS” value turned out to be 0.0878, the “area with substrate EMLYFQS” value amounted to 0.0462 and the “area with substrate EQLYFQS” value was found to be 0.0421. The “area with substrate ERLYFQS” value turned out to be 0.0674, the “area with substrate ESLYFQS” value stood at 0.0675, the “area with substrate ETLYFQS” value was 0.065 and the “area with substrate EWLYFQS” value came out at 0.0708. For the same variant, the “area with substrate EYLYFQS” value was found to be 0.0669.

For MGESLFKGPRDYNPISSSICHLTNESDGHTTSLYGIGFGPFIITNKHLFRRNNGTLVVQSLHGVFKVKDTTTLQQHLVDGRDMIIIRMPKDFPPFPQKLKFREPQREERICLVTTNFQTKSMSSMVSDTSCTFPSGDGIFWKHWIQTKDGQCGSWLVSTRDGFIVGIHSASNFTNTNNYFTSVPKNFMELLTNQEAQQWVSGWRLNADSVLWGGHKVFMVKPEEPFQPVKEATQL [P155W], the “area with substrate ECLYFQS” value is 0.066, the “area with substrate EDLYFQS” value stood at 0.0532, the “area with substrate EELYFQS” value was 0.064 and the “area with substrate EGLYFQS” value came out at 0.0688. The “area with substrate EILYFQS” value was determined as 0.0396, the “area with substrate EKLYFQS” value stood at 0.0498, the “area with substrate ELLYFQS” value was determined as 0.0477 and the “area with substrate EMLYFQS” value was 0.0449. In addition, the “area with substrate EPLYFQS” value came out at 0.0233, the “area with substrate EQLYFQS” value turned out to be 0.0523, the “area with substrate ERLYFQS” value is 0.0678 and the “area with substrate ESLYFQS” value came out at 0.0564. For the same variant, the “area with substrate ETLYFQS” value is 0.0557, the “area with substrate EVLYFQS” value turned out to be 0.0515, the “area with substrate EWLYFQS” value was 0.0544 and the “area with substrate EYLYFQS” value came out at 0.0542.

Values taken from the supplement of paper PMC12217912.
